Assay results taken from a collection of fitness landscapes (doi:10.1016/j.celrep.2020.107928).
Whole data set: some 81,000 sequences, median “one-hybrid fitness for binding parS DNA” near -0.17, cut for the highest 2% near 0.51. This is one part of the list.

B1: Caulobacter ParB omega fusion; a variant is named by its letters at X, in order, B8GW30 (parent)
chain: MESVVVGEPGMSEGRRGLGRGLSALLGEVDAAPAQAPGEQLGGSREAPIEILQRNPDQPRRTFREEDLEDLSNSIREKGVLQPILVRPSPDTAGEYQIVAGERAWRAAQRAGLKTVPIMVRELDDLAVLEIGIIENVQRADLNVLEEALSYKVLMEKFERTQENIAQTIGKSXSHVANXMRLLXLPDEVQSYLVSGELTAXHARAIAAAADPVALAKQIIEGGLSVRETEALARKAPNLSAGKSKGGRPPRVKDTDTQALESDLSSVLGLDVSIDHRGSTGTLTITYATLEQLDDLCNRLTRGI

Variants of: B1
Test: one-hybrid fitness for binding parS DNA (scaled: cognate 1, non-cognate 0); higher = stronger binding
Settings: with parS DNA site
Procedure, shortened: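 On M9-minus-histidine containing 0.1 mM IPTG and 5 mM 3-AT, E. coli USO cells with a HIS3 reporter, site 19 bp from the promoter, grew 48 hours at 37°C to select Caulobacter ParB libraries randomised at four specificity codons. Plasmids from before and after were Illumina-sequenced, with three replicate libraries pooled and variants under 10 reads left out. Fitness is the log change in variant-to-wild-type read ratio, rescaled against cognate and non-cognate.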

KKHR and PLPH cannot be ordered by “one-hybrid fitness for binding parS DNA” value: ≤ 0.2 for the first, ≤ 0.2 for the second.

ALRE and ICIN cannot be ordered by “one-hybrid fitness for binding parS DNA” value: ≤ 0.2 for the first, ≤ 0.2 for the second.

NHEG and ICKF cannot be ordered by “one-hybrid fitness for binding parS DNA” value: ≤ 0.2 for the first, ≤ 0.2 for the second.

SSDM and DYDR cannot be ordered by “one-hybrid fitness for binding parS DNA” value: ≤ 0.2 for the first, ≤ 0.2 for the second.

Going from KHET to RLYS, the “one-hybrid fitness for binding parS DNA” value rises from ≤ 0.2 to 1.04.

QNRK and RAYK cannot be ordered by “one-hybrid fitness for binding parS DNA” value: ≤ 0.2 for the first, ≤ 0.2 for the second.

ELRA and LSGS cannot be ordered by “one-hybrid fitness for binding parS DNA” value: ≤ 0.2 for the first, ≤ 0.2 for the second.

IMKA and QASK cannot be ordered by “one-hybrid fitness for binding parS DNA” value: ≤ 0.2 for the first, ≤ 0.2 for the second.

VPIS and PICV cannot be ordered by “one-hybrid fitness for binding parS DNA” value: ≤ 0.2 for the first, ≤ 0.2 for the second.

LFLV and NVRI cannot be ordered by “one-hybrid fitness for binding parS DNA” value: ≤ 0.2 for the first, ≤ 0.2 for the second.

CDSV and NKHT cannot be ordered by “one-hybrid fitness for binding parS DNA” value: ≤ 0.2 for the first, ≤ 0.2 for the second.

VNNG and SYNW cannot be ordered by “one-hybrid fitness for binding parS DNA” value: ≤ 0.2 for the first, ≤ 0.2 for the second.

TQFC and LLSR cannot be ordered by “one-hybrid fitness for binding parS DNA” value: ≤ 0.2 for the first, ≤ 0.2 for the second.

NSWR and QVDL cannot be ordered by “one-hybrid fitness for binding parS DNA” value: ≤ 0.2 for the first, ≤ 0.2 for the second.

KTRC and YRPN cannot be ordered by “one-hybrid fitness for binding parS DNA” value: ≤ 0.2 for the first, ≤ 0.2 for the second.

YYAV and PNIW cannot be ordered by “one-hybrid fitness for binding parS DNA” value: ≤ 0.2 for the first, ≤ 0.2 for the second.

PKWS and QVVF cannot be ordered by “one-hybrid fitness for binding parS DNA” value: ≤ 0.2 for the first, ≤ 0.2 for the second.

SKNI and CSHF cannot be ordered by “one-hybrid fitness for binding parS DNA” value: ≤ 0.2 for the first, ≤ 0.2 for the second.

IWAL and MSLD cannot be ordered by “one-hybrid fitness for binding parS DNA” value: ≤ 0.2 for the first, ≤ 0.2 for the second.

EASN and GDVS cannot be ordered by “one-hybrid fitness for binding parS DNA” value: ≤ 0.2 for the first, ≤ 0.2 for the second.

APQS and DHDR cannot be ordered by “one-hybrid fitness for binding parS DNA” value: ≤ 0.2 for the first, ≤ 0.2 for the second.

RAGD and DLRL cannot be ordered by “one-hybrid fitness for binding parS DNA” value: ≤ 0.2 for the first, ≤ 0.2 for the second.

QFTW and INIR cannot be ordered by “one-hybrid fitness for binding parS DNA” value: ≤ 0.2 for the first, ≤ 0.2 for the second.

MYET and NADY cannot be ordered by “one-hybrid fitness for binding parS DNA” value: ≤ 0.2 for the first, ≤ 0.2 for the second.

EQKC and RIGI cannot be ordered by “one-hybrid fitness for binding parS DNA” value: ≤ 0.2 for the first, ≤ 0.2 for the second.

LVAQ and NYRT cannot be ordered by “one-hybrid fitness for binding parS DNA” value: ≤ 0.2 for the first, ≤ 0.2 for the second.

EYTF and KLAA cannot be ordered by “one-hybrid fitness for binding parS DNA” value: ≤ 0.2 for the first, ≤ 0.2 for the second.

PFPG and AQQE cannot be ordered by “one-hybrid fitness for binding parS DNA” value: ≤ 0.2 for the first, ≤ 0.2 for the second.

PSRY and MAYY cannot be ordered by “one-hybrid fitness for binding parS DNA” value: ≤ 0.2 for the first, ≤ 0.2 for the second.

RIPI and NPNT cannot be ordered by “one-hybrid fitness for binding parS DNA” value: ≤ 0.2 for the first, ≤ 0.2 for the second.

SGMV and TCCS cannot be ordered by “one-hybrid fitness for binding parS DNA” value: ≤ 0.2 for the first, ≤ 0.2 for the second.

AKTS and PAHP cannot be ordered by “one-hybrid fitness for binding parS DNA” value: ≤ 0.2 for the first, ≤ 0.2 for the second.

VIST and YLSN cannot be ordered by “one-hybrid fitness for binding parS DNA” value: ≤ 0.2 for the first, ≤ 0.2 for the second.

ARSR and FDHP cannot be ordered by “one-hybrid fitness for binding parS DNA” value: ≤ 0.2 for the first, ≤ 0.2 for the second.

ALDF and LNPV cannot be ordered by “one-hybrid fitness for binding parS DNA” value: ≤ 0.2 for the first, ≤ 0.2 for the second.

YLPG and AADG cannot be ordered by “one-hybrid fitness for binding parS DNA” value: ≤ 0.2 for the first, ≤ 0.2 for the second.

HHNC and WKSC cannot be ordered by “one-hybrid fitness for binding parS DNA” value: ≤ 0.2 for the first, ≤ 0.2 for the second.

LFIC and QDVG cannot be ordered by “one-hybrid fitness for binding parS DNA” value: ≤ 0.2 for the first, ≤ 0.2 for the second.

First: TASR
Second: RVIA
The “one-hybrid fitness for binding parS DNA” value of the first is lower: ≤ 0.2 for the first, 0.522 for the second.

GLPW and QQGD cannot be ordered by “one-hybrid fitness for binding parS DNA” value: ≤ 0.2 for the first, ≤ 0.2 for the second.

VHNF and ESIL cannot be ordered by “one-hybrid fitness for binding parS DNA” value: ≤ 0.2 for the first, ≤ 0.2 for the second.

NIGG and RIAQ cannot be ordered by “one-hybrid fitness for binding parS DNA” value: ≤ 0.2 for the first, ≤ 0.2 for the second.

KTRT and QQSC cannot be ordered by “one-hybrid fitness for binding parS DNA” value: ≤ 0.2 for the first, ≤ 0.2 for the second.

LTMG and SYYS cannot be ordered by “one-hybrid fitness for binding parS DNA” value: ≤ 0.2 for the first, ≤ 0.2 for the second.

PWRS and PFPW cannot be ordered by “one-hybrid fitness for binding parS DNA” value: ≤ 0.2 for the first, ≤ 0.2 for the second.

WVAL and PNFR cannot be ordered by “one-hybrid fitness for binding parS DNA” value: ≤ 0.2 for the first, ≤ 0.2 for the second.

PMVS and YGQY cannot be ordered by “one-hybrid fitness for binding parS DNA” value: ≤ 0.2 for the first, ≤ 0.2 for the second.

CRFR and SWVR cannot be ordered by “one-hybrid fitness for binding parS DNA” value: ≤ 0.2 for the first, ≤ 0.2 for the second.

Compared with LLNC, RICA is higher in “one-hybrid fitness for binding parS DNA” value: ≤ 0.2 for the first, 0.525 for the second.

NPTG and QLYY cannot be ordered by “one-hybrid fitness for binding parS DNA” value: ≤ 0.2 for the first, ≤ 0.2 for the second.

FYTT and AGTS cannot be ordered by “one-hybrid fitness for binding parS DNA” value: ≤ 0.2 for the first, ≤ 0.2 for the second.

SCQI and HMYS cannot be ordered by “one-hybrid fitness for binding parS DNA” value: ≤ 0.2 for the first, ≤ 0.2 for the second.

RHHF and AELV cannot be ordered by “one-hybrid fitness for binding parS DNA” value: ≤ 0.2 for the first, ≤ 0.2 for the second.

GQRT and AKLA cannot be ordered by “one-hybrid fitness for binding parS DNA” value: ≤ 0.2 for the first, ≤ 0.2 for the second.

LNNG and QPNY cannot be ordered by “one-hybrid fitness for binding parS DNA” value: ≤ 0.2 for the first, ≤ 0.2 for the second.

KLTM and CASK cannot be ordered by “one-hybrid fitness for binding parS DNA” value: ≤ 0.2 for the first, ≤ 0.2 for the second.

First: RMKQ
Second: RMQW
The “one-hybrid fitness for binding parS DNA” value of the first is lower: ≤ 0.2 for the first, 0.249 for the second.

SFTF and TWIG cannot be ordered by “one-hybrid fitness for binding parS DNA” value: ≤ 0.2 for the first, ≤ 0.2 for the second.

ERYG and AHLS cannot be ordered by “one-hybrid fitness for binding parS DNA” value: ≤ 0.2 for the first, ≤ 0.2 for the second.

PTYA and KENG cannot be ordered by “one-hybrid fitness for binding parS DNA” value: ≤ 0.2 for the first, ≤ 0.2 for the second.

MMHT and CPNI cannot be ordered by “one-hybrid fitness for binding parS DNA” value: ≤ 0.2 for the first, ≤ 0.2 for the second.

YIVG and NEVS cannot be ordered by “one-hybrid fitness for binding parS DNA” value: ≤ 0.2 for the first, ≤ 0.2 for the second.

QKWE and IVKV cannot be ordered by “one-hybrid fitness for binding parS DNA” value: ≤ 0.2 for the first, ≤ 0.2 for the second.

Going from RCCM to QDFM, the “one-hybrid fitness for binding parS DNA” value falls from 0.406 to ≤ 0.2.

RSIV and LSTC cannot be ordered by “one-hybrid fitness for binding parS DNA” value: ≤ 0.2 for the first, ≤ 0.2 for the second.

ACMR and DHYG cannot be ordered by “one-hybrid fitness for binding parS DNA” value: ≤ 0.2 for the first, ≤ 0.2 for the second.

YYGS and MVDR cannot be ordered by “one-hybrid fitness for binding parS DNA” value: ≤ 0.2 for the first, ≤ 0.2 for the second.

QSVE and VGKF cannot be ordered by “one-hybrid fitness for binding parS DNA” value: ≤ 0.2 for the first, ≤ 0.2 for the second.

AVFL and VQAS cannot be ordered by “one-hybrid fitness for binding parS DNA” value: ≤ 0.2 for the first, ≤ 0.2 for the second.

HFKF and PTHA cannot be ordered by “one-hybrid fitness for binding parS DNA” value: ≤ 0.2 for the first, ≤ 0.2 for the second.

GVRW and KLFS cannot be ordered by “one-hybrid fitness for binding parS DNA” value: ≤ 0.2 for the first, ≤ 0.2 for the second.

SHRS and VDQC cannot be ordered by “one-hybrid fitness for binding parS DNA” value: ≤ 0.2 for the first, ≤ 0.2 for the second.

FIGC and SESD cannot be ordered by “one-hybrid fitness for binding parS DNA” value: ≤ 0.2 for the first, ≤ 0.2 for the second.

KAKQ and RQKI cannot be ordered by “one-hybrid fitness for binding parS DNA” value: ≤ 0.2 for the first, ≤ 0.2 for the second.

VRLM and YVTL cannot be ordered by “one-hybrid fitness for binding parS DNA” value: ≤ 0.2 for the first, ≤ 0.2 for the second.

PFAF and IACV cannot be ordered by “one-hybrid fitness for binding parS DNA” value: ≤ 0.2 for the first, ≤ 0.2 for the second.

For RFCL, the “one-hybrid fitness for binding parS DNA” value was ≤ 0.2.
